# Assay results published in the supplement of paper PMC8728848.
# Some of the results follow.
# Tests used:
# Assay in all cases: glycan array binding signal (z-score within array); higher = stronger binding
# Conditions in all cases: glycan notation: IUPAC condensed, linker removed
# [1] = target: Gal(a1-3)Gal(b1-4)GlcNAc(b1-6)GalNAc
# In short: (§1)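 The Consortium for Functional Glycomics database supplied 3228 glycan arrays, of which those lacking an available protein sequence were dropped. The binding signal, a within-array Z-score, was averaged across arrays of the same protein sequence and across linkers. Negative scores can be read as non-binding.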
# [2] = target: Gal(a1-3)Gal(b1-4)[Fuc(a1-3)]GlcNAc
# In short: as §1
# [3] = target: Gal(a1-3)Gal(b1-4)[Fuc(a1-3)]GlcNAc(b1-2)Man(a1-3)[Gal(a1-3)Gal(b1-4)[Fuc(a1-3)]GlcNAc(b1-2)Man(a1-6)]Man(b1-4)GlcNAc(b1-4)GlcNAc
# In short: as §1
# Gal(a1-3)GalNAc = target: Gal(a1-3)GalNAc
# In short: as §1
# [4] = target: Gal(a1-3)[Gal(a1-4)]Gal(b1-4)GlcNAc
# In short: as §1
# [5] = target: Gal(a1-4)Gal(b1-3)GlcNAc(b1-2)Man(a1-3)[Gal(a1-4)Gal(b1-3)GlcNAc(b1-2)Man(a1-6)]Man(b1-4)GlcNAc(b1-4)GlcNAc
# In short: as §1
# Gal(a1-4)Gal(b1-4)Glc = target: Gal(a1-4)Gal(b1-4)Glc
# In short: as §1
# Gal(a1-4)Gal(b1-4)GlcNAc = target: Gal(a1-4)Gal(b1-4)GlcNAc
# In short: as §1
# [6] = target: Gal(a1-4)Gal(b1-4)GlcNAc(b1-2)Man(a1-3)[Gal(a1-4)Gal(b1-4)GlcNAc(b1-2)Man(a1-6)]Man(b1-4)GlcNAc(b1-4)GlcNAc
# In short: as §1
# [7] = target: Gal(a1-4)Gal(b1-4)GlcNAc(b1-3)Gal(b1-4)Glc
# In short: as §1
# Gal(a1-4)GlcNAc = target: Gal(a1-4)GlcNAc
# In short: as §1
# Gal(a1-6)Glc = target: Gal(a1-6)Glc
# In short: as §1
# Gal(b1-2)Gal = target: Gal(b1-2)Gal
# In short: as §1
# Gal(b1-3)Gal = target: Gal(b1-3)Gal
# In short: as §1
# Gal(b1-3)Gal(b1-4)GlcNAc = target: Gal(b1-3)Gal(b1-4)GlcNAc
# In short: as §1
# [8] = target: Gal(b1-3)Gal(b1-4)GlcNAc(b1-2)Man(a1-3)[Gal(b1-3)Gal(b1-4)GlcNAc(b1-2)Man(a1-6)]Man(b1-4)GlcNAc(b1-4)GlcNAc
# In short: as §1
# Gal(b1-3)GalNAc = target: Gal(b1-3)GalNAc
# In short: as §1
# [9] = target: Gal(b1-3)GalNAc(a1-3)[Fuc(a1-2)]Gal(b1-4)Glc
# In short: as §1
# [10] = target: Gal(b1-3)GalNAc(a1-3)[Fuc(a1-2)]Gal(b1-4)GlcNAc
# In short: as §1
# Gal(b1-3)GalNAc(b1-3)Gal = target: Gal(b1-3)GalNAc(b1-3)Gal
# In short: as §1
# [11] = target: Gal(b1-3)GalNAc(b1-3)Gal(a1-4)Gal(b1-4)Glc
# In short: as §1
# [12] = target: Gal(b1-3)GalNAc(b1-4)Gal(b1-4)Glc
# In short: as §1
# [13] = target: Gal(b1-3)GalNAc(b1-4)[Neu5Ac(a2-3)]Gal(b1-4)Glc
# In short: as §1
# Gal(b1-3)GlcNAc = target: Gal(b1-3)GlcNAc
# In short: as §1
# [14] = target: Gal(b1-3)GlcNAc(a1-3)Gal(b1-4)GlcNAc
# In short: as §1
# [15] = target: Gal(b1-3)GlcNAc(a1-6)Gal(b1-4)GlcNAc
# In short: as §1
# Gal(b1-3)GlcNAc(b1-2)Man = target: Gal(b1-3)GlcNAc(b1-2)Man
# In short: as §1
# [16] = target: Gal(b1-3)GlcNAc(b1-2)Man(a1-3)[Gal(b1-3)GlcNAc(b1-2)Man(a1-6)]Man(b1-4)GlcNAc(b1-4)GlcNAc
# In short: as §1
# [17] = target: Gal(b1-3)GlcNAc(b1-2)Man(a1-3)[Gal(b1-3)GlcNAc(b1-2)Man(a1-6)]Man(b1-4)GlcNAc(b1-4)[Fuc(a1-6)]GlcNAc
# In short: as §1
# [18] = target: Gal(b1-3)GlcNAc(b1-2)Man(a1-3)[GlcNAc(b1-4)][Gal(b1-3)GlcNAc(b1-2)Man(a1-6)]Man(b1-4)GlcNAc(b1-4)GlcNAc
# In short: as §1
# [19] = target: Gal(b1-3)GlcNAc(b1-2)[Gal(b1-3)GlcNAc(b1-6)]Man(a1-6)[Gal(b1-3)GlcNAc(b1-2)Man(a1-3)]Man(b1-4)GlcNAc(b1-4)GlcNAc
# In short: as §1
# [20] = target: Gal(b1-3)GlcNAc(b1-3)Gal(b1-3)GlcNAc
# In short: as §1
# [21] = target: Gal(b1-3)GlcNAc(b1-3)Gal(b1-4)Glc
# In short: as §1
# [22] = target: Gal(b1-3)GlcNAc(b1-3)Gal(b1-4)GlcNAc
# In short: as §1
# [23] = target: Gal(b1-3)GlcNAc(b1-3)Gal(b1-4)GlcNAc(b1-2)Man(a1-3)[Gal(b1-3)GlcNAc(b1-3)Gal(b1-4)GlcNAc(b1-2)Man(a1-6)]Man(b1-4)GlcNAc(b1-4)GlcNAc
# In short: as §1
# [24] = target: Gal(b1-3)GlcNAc(b1-3)Gal(b1-4)GlcNAc(b1-2)[Gal(b1-3)GlcNAc(b1-3)Gal(b1-4)GlcNAc(b1-6)]Man(a1-6)[Gal(b1-3)GlcNAc(b1-3)Gal(b1-4)GlcNAc(b1-2)Man(a1-3)]Man(b1-4)GlcNAc(b1-4)[Fuc(a1-6)]GlcNAc
# In short: as §1
# [25] = target: Gal(b1-3)GlcNAc(b1-3)Gal(b1-4)GlcNAc(b1-3)Gal(b1-4)GlcNAc(b1-2)[Gal(b1-3)GlcNAc(b1-3)Gal(b1-4)GlcNAc(b1-3)Gal(b1-4)GlcNAc(b1-6)]Man(a1-6)[Gal(b1-3)GlcNAc(b1-3)Gal(b1-4)GlcNAc(b1-3)Gal(b1-4)GlcNAc(b1-2)Man(a1-3)]Man(b1-4)GlcNAc(b1-4)[Fuc(a1-6)]GlcNAc
# In short: as §1
# [26] = target: Gal(b1-3)GlcNAc(b1-3)Gal(b1-4)GlcNAc(b1-6)[Gal(b1-3)GlcNAc(b1-3)]Gal(b1-4)Glc
# In short: as §1
# [27] = target: Gal(b1-3)GlcNAc(b1-3)Gal(b1-4)[Fuc(a1-3)]GlcNAc
# In short: as §1
# [28] = target: Gal(b1-3)GlcNAc(b1-3)Gal(b1-4)[Fuc(a1-3)]GlcNAc(b1-6)[Gal(b1-3)GlcNAc(b1-3)]Gal(b1-4)Glc
# In short: as §1
# [29] = target: Gal(b1-3)GlcNAc(b1-3)GalNAc
# In short: as §1
# [30] = target: Gal(b1-3)GlcNAc(b1-6)Gal(b1-4)GlcNAc
# In short: as §1
# [31] = target: Gal(b1-3)GlcNAc(b1-6)GalNAc
# In short: as §1
# [32] = target: Gal(b1-3)GlcNAc(b1-6)[Gal(b1-3)]GalNAc
# In short: as §1
# Gal(b1-3)GlcNAc6S = target: Gal(b1-3)GlcNAc6S
# In short: as §1
binder,measurement,setting,value
"GNA (Galanthus nivalis), P30617 (protein) MAKASLLILAAIFLGVITPSCLSDNILYSGETLSTGEFLNYGSFVFIMQEDCNLVLYDVDKPIWATNTGGLSRSCFLSMQTDGNLVVYNPSNKPIWASNTGGQNGNYVCILQKDRNVVIYGTDRWATGTHTGLVGIPASPPSEKYPTAGKIKLVTAK",glycan array binding signal (z-score),[1],-0.182
same,glycan array binding signal (z-score),[2],-0.198
same,glycan array binding signal (z-score),[3],-0.106
same,glycan array binding signal (z-score),Gal(a1-3)GalNAc,-0.081
same,glycan array binding signal (z-score),[4],-0.088
same,glycan array binding signal (z-score),[5],0.249
same,glycan array binding signal (z-score),Gal(a1-4)Gal(b1-4)Glc,-0.113
same,glycan array binding signal (z-score),Gal(a1-4)Gal(b1-4)GlcNAc,-0.161
same,glycan array binding signal (z-score),[6],0.518
same,glycan array binding signal (z-score),[7],-0.192
same,glycan array binding signal (z-score),Gal(a1-4)GlcNAc,-0.158
same,glycan array binding signal (z-score),Gal(a1-6)Glc,-0.01
same,glycan array binding signal (z-score),Gal(b1-2)Gal,-0.159
same,glycan array binding signal (z-score),Gal(b1-3)Gal,-0.128
same,glycan array binding signal (z-score),Gal(b1-3)Gal(b1-4)GlcNAc,-0.171
same,glycan array binding signal (z-score),[8],0.171
same,glycan array binding signal (z-score),Gal(b1-3)GalNAc,-0.114
same,glycan array binding signal (z-score),[9],-0.11
same,glycan array binding signal (z-score),[10],-0.213
same,glycan array binding signal (z-score),Gal(b1-3)GalNAc(b1-3)Gal,-0.19
same,glycan array binding signal (z-score),[11],-0.232
same,glycan array binding signal (z-score),[12],-0.161
same,glycan array binding signal (z-score),[13],-0.218
same,glycan array binding signal (z-score),Gal(b1-3)GlcNAc,-0.181
same,glycan array binding signal (z-score),[14],-0.175
same,glycan array binding signal (z-score),[15],-0.163
same,glycan array binding signal (z-score),Gal(b1-3)GlcNAc(b1-2)Man,-0.149
same,glycan array binding signal (z-score),[16],0.173
same,glycan array binding signal (z-score),[17],-0.042
same,glycan array binding signal (z-score),[18],0.24
same,glycan array binding signal (z-score),[19],0.12
same,glycan array binding signal (z-score),[20],-0.242
same,glycan array binding signal (z-score),[21],-0.204
same,glycan array binding signal (z-score),[22],-0.197
same,glycan array binding signal (z-score),[23],0.19
same,glycan array binding signal (z-score),[24],1.35
same,glycan array binding signal (z-score),[25],1.3
same,glycan array binding signal (z-score),[26],-0.18
same,glycan array binding signal (z-score),[27],-0.166
same,glycan array binding signal (z-score),[28],-0.151
same,glycan array binding signal (z-score),[29],-0.163
same,glycan array binding signal (z-score),[30],-0.18
same,glycan array binding signal (z-score),[31],-0.15
same,glycan array binding signal (z-score),[32],-0.09
same,glycan array binding signal (z-score),Gal(b1-3)GlcNAc6S,-0.168
